# From PubChem BioAssay (Tox21)
# Results filed as inconclusive are left out. Unless noted, calls come from the whole dose curve; as a rule, active = well fitted curve in the direction sought with a large enough effect in the repeat runs; inconclusive = weak or mixed curves; inactive = no such curve, though single readings can be large; an effect the other way counts as inactive or inconclusive. Some compounds were tested as several samples or in several runs, with calls that do not always agree. For part of its entries the source gives two or more results. Only these are listed. There may be further records. The values listed for one entry are repeats (runs, samples, wells, individuals or studies). Marks in square brackets tell the records apart. Letters hold for one entry only.
# How the values were obtained:
# [1] = qHTS assay for small molecules that induce genotoxicity in human embryonic kidney cells expressing luciferase-tagged ATAD5 - cell viability (AID 651634; calls by dose curve; note: nearly all actives have a fitted effect of over 25% in size)
# Procedure, shortened: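 HEK293T ATAD5-luc cells, 2,000/well; compound 15.5 hr, 37C/5% CO2; CellTiter-Fluor 30 min, 37C; fluorescence read.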
# [2] = qHTS RealTime-Glo MT Cell Viability Assay in HEK293 cells - 0 hour (AID 1224880); note: nearly all actives have a fitted effect of over 45% in size
# Procedure, shortened: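 Luminescence readout at each listed time point; HEK293, 600 cells/well, RealTime-Glo MT reagent added with cells; compounds pinned (23 nL in DMSO) after 5 h at 37 C; continuous culture at 37 C.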
# [3] = qHTS assay to identify small molecule antagonists of the thyroid receptor (TR) signaling pathway (AID 743065); note: nearly all actives have a fitted effect of over 55% in size
# Procedure, shortened: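 Antagonism measured as loss of luciferase signal in GH3 cells stably carrying a TRE-luciferase reporter, co-treated with compound and T3 (1 nM final) for 23.5 h at 37 C. Viability was read in the same well by CellTiter-Fluor.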
# [4] = A CellTox Green Cytotoxicity Assay to monitor cytotoxicity in HEK293 cells - 24 hour (AID 1224875); note: nearly all actives have a fitted effect of over 45% in size
# Text: National Center for Advancing Translational Sciences [NCATS]
# NIH Chemical Genomics Center [NCGC]
# U.S. Environmental Protection Agency [EPA]
# National Institutes of Environmental Health Sciences [NIEHS]
# National Toxicology Program [NTP]
# Cell-based models are critical for drug discovery. Determining the natural cytotoxic effects resulting from test compounds is an essential research activity. A CellTox Green Cytotoxicity Assay to monitor cytotoxicity in real time of continues cell culture during 40 hours of the compound treatment was used to screen Tox21 10K library compounds in Hek293 cells. CellTox Green Cytotoxicity Assay is a nonlytic, homogeneous, biofluorescent method to measure cytotoxicity in cell culture after experimental manipulation. The assay system uses a proprietary asymmetric cyanine dye that is excluded from viable cells but preferentially stains the dead cell's DNA. […] Viable cells produce no appreciable increases in fluorescence. Therefore, the fluorescence signal produced by the binding interaction with dead cell DNA is proportional to cytotoxicity.
# The mixture of Hek293 cell suspension and reagents were dispensed at 600cells/6 ul/well in 1536-well tissue culture treated black solid bottom plates using a Multidrop dispenser. […] The fluorescence intensity were measured at 0h, 8h, 16h, 24h, 32h and 40h time points using ViewLux plate reader during compound treatment.
# [5] = A CellTox Green Cytotoxicity Assay to monitor cytotoxicity in HEK293 cells - 16 hour (AID 1224888); note: nearly all actives have a fitted effect of over 35% in size
# Procedure, shortened: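 Read-out: fluorescence of a cell-impermeant cyanine dye staining DNA of dead cells, proportional to cytotoxicity. HEK293, 600 cells/well with reagent, compound (23 nL DMSO) added after 5 h; reads at 0, 8, 16, 24, 32, 40 h.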
# [6] = qHTS assay to identify small molecule antagonists of the progesterone receptor (PR) signaling pathway - cell viability counter screen (AID 1346798); note: nearly all actives have a fitted effect of over 50% in size
# Procedure, shortened: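 HEK293T PR-UAS-bla, 2% charcoal-stripped FBS; 4 hr pre-plate; cpd + R5020, 16 h 37C; LiveBLAzer read first; then CellTiter-Glo 30 min RT, luminescence.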
# Potency is the fitted concentration of half-maximal effect.
structure (smiles),measurement,setting,value
COC(=O)C1=C(C)NC(C)=C(C(=O)OC)C1c1ccccc1[N+](=O)[O-],Potency,[1],inactive [sample A] and active: 54.5 µM [sample B]
same,Potency,[2],active: 24.6 µM [sample A] and inactive [sample B]
CCCCOCCOCCOCc1cc2c(cc1CCC)OCO2,Potency,[3],inactive [sample A] and active: 30.6 µM [sample B]
COC(=O)c1c(Cl)c(Cl)c(C(=O)OC)c(Cl)c1Cl,Potency,[3],inactive [sample A] and active: 48.6 µM [sample B]
same,Potency,[4],inactive [sample A] and active: 43.6 µM [sample B]
O=c1n(CCO)c(=O)n(CCO)c(=O)n1CCO,Potency,[4],inactive [sample A] and active: 38.9 µM [sample B]
same,Potency,[5],inactive [sample A] and active: 38.9 µM [sample B]
same,Potency,[6],inactive [sample A] and active: 54.5 µM [sample B]
